# Test results as given in PubChem BioAssay AID1768 (National Center for Advancing Translational Sciences (NCATS), 2009).
# Hit rate of the full screen: of about 270,000 compounds, about 620 (0.23%) were called active. Inconclusive means that the source gave no clear call. Such entries were picked first, then a sample of the others. Calls come from the whole dose curve; as a rule, active = well fitted inhibition curve with a large enough effect in the polarisation, with a control signal flat (not every such curve was filed as active); inconclusive = small, poorly fitted or top-dose-only effect, or effect the other way, or a change in a side signal; inactive = no such curve, though single readings can be large or run the other way; the % refers to the polarisation. A potency beside an inconclusive call is a rough fit, not a confirmed value. “Side channel” marks fits to a control or component signal instead of the main read-out.
# Biological target: Menin (Homo sapiens) (UniProt O00255)
# UniProt O00255, sequence (O00255 whole entry, looked up): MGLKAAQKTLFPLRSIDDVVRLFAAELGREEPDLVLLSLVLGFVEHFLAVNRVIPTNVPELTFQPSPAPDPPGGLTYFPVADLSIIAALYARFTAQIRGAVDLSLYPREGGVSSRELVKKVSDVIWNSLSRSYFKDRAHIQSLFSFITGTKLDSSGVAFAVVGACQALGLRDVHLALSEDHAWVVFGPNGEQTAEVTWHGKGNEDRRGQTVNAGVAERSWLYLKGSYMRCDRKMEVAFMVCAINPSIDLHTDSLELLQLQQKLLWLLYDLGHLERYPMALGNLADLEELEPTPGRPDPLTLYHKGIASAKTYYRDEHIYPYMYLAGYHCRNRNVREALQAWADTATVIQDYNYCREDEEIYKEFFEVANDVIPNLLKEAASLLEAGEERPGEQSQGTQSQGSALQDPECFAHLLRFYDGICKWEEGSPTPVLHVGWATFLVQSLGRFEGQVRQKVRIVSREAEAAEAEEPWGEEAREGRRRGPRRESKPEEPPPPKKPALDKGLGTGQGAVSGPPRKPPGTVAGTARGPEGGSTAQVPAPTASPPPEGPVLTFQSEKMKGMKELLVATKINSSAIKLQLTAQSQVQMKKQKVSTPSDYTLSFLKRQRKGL
# Assay: qHTS Assay for Inhibitors Targeting the Menin-MLL Interaction in MLL Related Leukemias: Competition With Texas Red Labeled MLL-derived Mutant Peptide
# Conditions: fluorescence polarization; series mostly up to 61.6 µM
# Potency is the fitted concentration of half-maximal effect; tags give direction and shape of the fitted curve or compound fluorescence and quenching.
row,SMILES,Potency
1,CCc1sc(-c2c(C#N)c(N)nc3c2CCCCCC3)cc1[N+](=O)[O-],"inconclusive: 3.16 µM [inhibitor, full curve]"
2,CCOc1cc(N2CCOCC2)c(OCC)cc1NC(=O)CSc1ncn[nH]1,"inconclusive: 39.8 µM [inhibitor, single point]"
3,Cc1cccc(Nc2nc(-c3ccc(O)c(O)c3)cs2)n1,"inconclusive: 11.2 µM [quencher, side channel, partial curve, poor fit]"
4,COc1ccc(/C=C(\NC(=O)c2ccccc2)C(=O)NCc2cccnc2)cc1,"inconclusive: 3.98 µM [inhibitor, full curve, poor fit]"
5,Cn1c(NC(=S)Nc2ccccc2)nc2ccccc21,"inconclusive: 11.2 µM [quencher, side channel, partial curve]"
6,Cc1cc(=O)oc2c3c(cc(OCC(=O)NCc4ccncc4)c12)OC(C)(C)CC3,"inconclusive: 39.8 µM [inhibitor, single point]"
7,Cc1ccc(OCC(=O)Nc2ccc(NC(=O)c3ccco3)cc2)c(C)c1,"inconclusive: 39.8 µM [fluorescent, side channel, single point]"
8,CC(=O)c1cccc(NC(=O)Nc2cccs2)c1,"inconclusive: 22.4 µM [quencher, side channel, partial curve]"
9,O=C(COc1ccccc1Cl)N1CCCC1,"inconclusive: 8.91 µM [inhibitor, single point]"
10,NCCn1c(=O)c(CCc2ccccc2)nc2cncnc21,"inconclusive: 15.8 µM [inhibitor, partial curve, poor fit]"
11,O=C(/C=C/c1cc2c(cc1Br)OCO2)NCc1ccc(Cl)cc1,"inconclusive: 15.8 µM [inhibitor, single point]"
12,COc1ccc(-n2c(Cc3ccccc3)nnc2SCC(=O)N2CCCc3ccccc32)cc1,"inconclusive: 10 µM [inhibitor, single point]"
13,O=C(NC1CCCCC1)C(c1ccc(F)cc1)N(Cc1ccccc1)C(=O)CN1C(=O)c2ccccc2S1(=O)=O (stereo unspecified),"inconclusive: 11.2 µM [inhibitor, partial curve]"
14,Cc1ccc(NC(=O)CSc2sc3c(O)cc(=O)[nH]c3c2C#N)cc1C,"inconclusive: 25.1 µM [quencher, side channel, single point]"
15,Cc1cccc(C(=O)Nc2nnc(S(=O)(=O)N3CCOCC3)s2)c1,"inconclusive: 39.8 µM [quencher, side channel, single point]"
16,O=C(COc1ccc(F)cc1)NNC(=O)c1cc2ccccc2oc1=O,"inconclusive: 39.8 µM [inhibitor, single point]"
17,CCN1CCCC1CNC(=O)CCc1nnc(CCC2CCCCC2)o1 (stereo unspecified),"inconclusive: 11.2 µM [fluorescent, side channel, partial curve]"
18,Cn1nccc1C(=O)Oc1cccc(/C=N/NC(=O)c2ccccc2O)c1,"inconclusive: 39.8 µM [quencher, side channel, single point]"

row,SMILES,Potency
1,O=C(COC(=O)c1cn(-c2ccccc2)nc1-c1ccccc1)c1ccc([N+](=O)[O-])cc1,"inconclusive: 15.8 µM [quencher, side channel, partial curve]"
2,Cc1c(N=Cc2nc3ccccc3[nH]2)c(=O)n(-c2ccccc2)n1C,"inconclusive: 39.8 µM [inhibitor, single point]"
3,O=C(NCc1ccccc1Cl)C(=O)c1c[nH]c2ccccc12,"inconclusive: 12.6 µM [quencher, side channel, partial curve]"
4,Cc1ccc(C)c(N(CC(=O)NC2CCCC2)C(=O)c2oc(C(C)(C)C)cc2C)c1,"inconclusive: 15.8 µM [fluorescent, side channel, partial curve]"
5,CCn1c(=O)c(C(=O)CN2CCCc3ccccc32)c(N)n(Cc2ccccc2)c1=O,"inconclusive: 10 µM [quencher, side channel, partial curve]"
6,O=C(CCCCl)Nc1nc(-c2ccc3c(c2)OCCO3)cs1,"inconclusive: 35.5 µM [inhibitor, single point]"
7,COc1ccccc1C(=O)Nc1nnc(S(=O)(=O)N2CCCCC2)s1,"inconclusive: 25.1 µM [quencher, side channel, single point]"
8,CCOC(=O)CCC(=O)Nc1ccc(S(=O)(=O)N2CCc3ccccc32)cc1,"inconclusive: 14.1 µM [quencher, side channel, partial curve]"
9,O=C(Nc1ccon1)c1ccc(S(=O)(=O)N2CCCCCC2)cc1,inactive
10,COc1ccc(CC(=O)Nc2ccc(-c3noc(-c4cc(OC)c(OC)c(OC)c4)n3)cc2)cc1,"inconclusive: 2.51 µM [quencher, side channel, full curve, poor fit]"
11,COc1ccc(C2=Nc3ccc(C)cc3C(c3ccccc3)N2CC(=O)NN)cc1 (stereo unspecified),"inconclusive: 10 µM [fluorescent, side channel, full curve, poor fit]"
12,COc1ccc2c(c1O)Cc1ccccc1C2=O,"inconclusive: 10 µM [fluorescent, side channel, partial curve]"
13,O=C(Nc1ccc(-c2nnc(-c3ccccc3)o2)cc1)C(F)(F)F,"inconclusive: 39.8 µM [fluorescent, side channel, single point]"
14,CSc1nnc(-c2cc(-c3ccc(C)cc3)nc3ccccc23)o1,inactive
15,CCOC(=O)c1[nH]c2c(c1C)C(=O)CC(c1ccco1)C2 (stereo unspecified),"inconclusive: 28.2 µM [quencher, side channel, single point]"
16,CC(=O)Oc1cccc2c1C(=O)c1c(OC(C)=O)cc(C(=O)O)cc1C2=O,"inconclusive: 28.2 µM [quencher, side channel, single point]"
17,CC(C)c1ccc(N=C2NN=C(c3cccs3)CS2)cc1,"inconclusive: 25.1 µM [quencher, side channel, partial curve]"
18,CC1=C(C(=O)OCc2ccccc2)C(c2ccc(C3CCCCC3)cc2)NC(=O)N1CCCCCC(=O)O (stereo unspecified),inactive
